# Results: PubChem BioAssay AID662 (National Center for Advancing Translational Sciences (NCATS), 2007)
# In all, about 71,000 compounds went through this assay and about 1,800 (2.5%) were called active. Inconclusive results, whose numbers are uncertain, are shown with a selection of clear calls. Calls follow the shape of the dose curve; as a rule, active = well fitted activation curve with a large enough effect in the signal ratio, with a control signal flat (not every such curve was filed as active); inconclusive = small, poorly fitted or top-dose-only effect, or effect the other way, or a change in a side signal; inactive = flat fitted curve, though single readings scatter; the % refers to the signal ratio. Where the call is inconclusive, the potency comes from a doubtful curve fit.
# Assay: Cell signaling CRE-BLA (Fsk stim); as to activity change, negative = inhibition: % of control where 0% means no effect
# Conditions: CHO CRE-bla reporter (cAMP response element driving beta-lactamase), forskolin EC10, beta-lactamase ratio; activity change, negative = inhibition: at 38.2 µM (top of the series) unless noted
# Summary of the method: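 Modulation of forskolin signalling: compounds in titration series added with EC10 NKH 477 to CHO cells carrying a CRE-driven beta-lactamase reporter, 3 h, 37C. CCF4 FRET ratio (460/530 nm, ex 405 nm) gives %activity and AC50.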
# Potency is read from the fitted curve at half-maximal effect; tags tell the direction and shape of the fitted curve.
Structure (SMILES),Potency,"activity change, negative = inhibition"
COc1cccc(C2=NOC(C(=O)Nc3cccc(C(C)=O)c3)C2)c1OC (configuration not stated),"inconclusive: 6.31 µM [rising, partial curve]",
COc1cc(NS(=O)(=O)c2ccc(OC)c(C)c2C)c(OC)cc1Cl,,inconclusive: 26%
Cc1[nH]c(C)c(CN(C)C)c1CN(C)C,,inactive: 2.59% [at 7.6 µM]
CCOC(=O)c1c(NC(=O)c2ccc(Br)o2)sc(C)c1CC,"inconclusive: 7.94 µM [rising, partial curve]",
COc1cccc(Nc2ncc3nc(-c4ccc(Cl)cc4)c(=O)n(C[C@H]4CCCO4)c3n2)c1,"inconclusive: 3.98 µM [rising, partial curve]",
CCN(CC)C(=O)c1cc2cc(Br)ccc2oc1=O,inactive,
CCNS(=O)(=O)c1ccc(NC(=O)Nc2cccc(C(F)(F)F)c2)cc1,,inconclusive: -15.5%
CN1CCCN=C1/C=C\c1cccs1,inactive,
CCCCC[C@@H](O)[C@@H]1C(=O)O[C@@H](C)[C@@H](O)\C=C/C=C\C=C/C=C\C=C(\C)[C@H](O)C[C@H](O)C[C@H](O)C[C@H](O)C[C@H](O)C[C@H](O)C[C@@H]1O,,inactive: -3.34% [at 7.6 µM]
Cc1cc2c(C)nc(-c3ccccc3)nc2o1,active: 0.398 µM,
COc1cc(Cl)ccc1NC(=O)COc1ccccc1C(=O)N1CCN(c2ccc(O)cc2)CC1,,inconclusive: 13.9%
C=CCn1c2ccccc2c2nnc(SCC(=O)NC(C(=O)OC)C(C)C)nc21 (configuration not stated),active: 5.01 µM,
CC(NC(=O)C1CC2CCCC(C1)C2=O)c1ccccc1 (configuration not stated),,inconclusive: 12.8%
CCCCCSc1nc2c(cnn2-c2ccccc2)c(=O)[nH]1,"inconclusive: 2.51 µM [rising, full curve]",
Cc1nc2ncnn2c(N2CCC(C(=O)NC3CCCC3)CC2)c1Cc1ccccc1,inactive,
Cc1cc(C(=O)Nc2ccc(S(=O)(=O)Nc3nccs3)cc2)c(C)o1,,inconclusive: 5.3%
COc1ccc(-c2noc(Cc3cccs3)n2)cc1,inactive,
CCc1nnc(NC(=O)c2ccc(NS(=O)(=O)c3ccccc3)cc2)s1,inactive,
COc1cc2c(cc1OC)C1=C(C#N)CCC(=O)N1CC2,"inconclusive: 0.631 µM [rising, full curve]",
COc1ccc(OC)c(NC(=O)C(CC(C)C)NC(=O)C2CCCCC2)c1 (configuration not stated),,inconclusive: 18.5%
COc1ccc(-n2nnnc2SCC(=O)c2cc3ccccc3o2)cc1,"inconclusive: 3.98 µM [falling, single point]",
CC(C)COC[C@H](CN(Cc1ccccc1)c1ccccc1)N1CCCC1,inactive,
CCOC(=O)c1c(NC(=O)CSc2nnc(-c3cccnc3)o2)sc(C(C)=O)c1C,"inconclusive: 25.1 µM [falling, single point]",
CN(C1CCCCC1)S(=O)(=O)c1ccccc1,inactive,
Cc1nnc2n1NC(c1ccc(Cl)cc1)C(C(=O)N1CCC(C)CC1)S2 (configuration not stated),"inconclusive: 3.98 µM [falling, single point]",
COc1nc(-c2ccccc2)ccc1-c1noc(-c2ccco2)n1,inactive,

Structure (SMILES),Potency,"activity change, negative = inhibition"
Cc1ccc(-c2nnc3ccc(SCC(=O)N4CCCCC4)nn23)cc1,,inconclusive: 3.21%
O=C(Nc1cccc(-c2nnc(-c3ccccc3)o2)c1)c1ccco1,inactive,
CC1CCCCN1S(=O)(=O)c1ccc2c(c1)oc(=O)n2CC(=O)O (configuration not stated),,inconclusive: 7.65%
CC1CCN(c2nc(-c3ccco3)c3c(c2C#N)CC(C)(C)OC3)CC1,"inconclusive: 7.94 µM [rising, partial curve]",
Cc1cc(C(=O)CSc2nnc(N)s2)c(C)n1CCc1ccc(F)cc1,inactive,
Clc1ss/c(=N\c2ccccn2)c1Cl,,inconclusive: -12.3%
CC(=O)OC(Cn1nc(C)cc1C)c1ccccc1 (configuration not stated),inactive,
C[C@@](O)(CNS(=O)(=O)c1ccccc1)c1ccccc1,,inactive: -1.2% [at 7.6 µM]
CCOC(=O)CSc1nc2ccccc2c(=O)n1Cc1ccco1,inactive,
N#Cc1nc(-c2ccccc2F)oc1NCc1cccc2c1OCO2,"inconclusive: 12.6 µM [rising, partial curve]",
Cn1c(=O)c2c(nc(CN3CCc4ccccc4C3)n2Cc2ccccc2)n(C)c1=O,inactive,
O=C(Nc1nnc(C2CC2)s1)c1cccc(S(=O)(=O)N2CCc3ccccc32)c1,"inconclusive: 12.6 µM [rising, single point]",
CSCC[C@H](NC(=O)OC(C)(C)C)c1nnc(SCc2ccccc2)o1,,inconclusive: -1.55%
Cc1noc(C)c1-c1nccc(NCc2cccnc2)n1,"inconclusive: 25.1 µM [rising, single point]",
CCCN1Cc2cccc(C(=O)NCc3ccccc3)c2C1=O,,inconclusive: 28.1%
Cn1c(=O)c2c(nc(N3CCN(Cc4ccccc4)CC3)n2CCSc2ncccn2)n(C)c1=O,"inconclusive: 12.6 µM [rising, single point]",
CCNc1nc(N2CCOCC2)nc(N(c2ccccc2)c2ccccc2)n1,"inconclusive: 5.01 µM [falling, single point]",
Cc1nc2cnc(N3CCOCC3)nc2n(C2CC2)c1=O,"inconclusive: 12.6 µM [rising, single point]",
CN(C)Cc1ccccc1-c1nc(NCc2ccccc2)c2ccccc2n1,inactive,
Cc1ccc(S(=O)(=O)Nc2c(C)n(C)n(-c3ccccc3)c2=O)cc1C(=O)NCc1ccccn1,,inconclusive: -11.4%
CCCCOc1ccc(-c2nnc(-c3ccncc3)o2)cc1,,inconclusive: 24.6%
O=c1[nH]c2cc3c(cc2cc1C(c1nnnn1C1CCCC1)N1CCSCC1)OCCO3 (configuration not stated),,inconclusive: 21.6%
COc1cc2c(=O)n(Cc3ccco3)c(=O)n(CC(=O)c3cccc(Br)c3)c2cc1OC,active: 3.98 µM,
O=C(Cn1cccc1C(=O)c1ccccc1)NCc1ccco1,,inconclusive: 0.546%
N#Cc1c(NC(=O)CSc2nnc(-c3ccncc3)n2CC2CCCO2)sc2c1CCCC2 (configuration not stated),"inconclusive: 10 µM [rising, single point]",
CC(SC1CCCC1)C(=O)Nc1ccnn1C(C)C (configuration not stated),"inconclusive: 5.01 µM [falling, single point]",
